Among the data in the antibiotic and cytotoxicity screens of Wong et al. (2023) are cytotoxicity call and growth inhibition call values, retold here.

Experiment [1] deals with HSkMC (human skeletal muscle cells). Kind of experiment: cytotoxicity call (relative viability < 0.9). As to conditions: 10 µM.
For experiment [2], the system named is S. aureus RN4220. Kind of experiment: growth inhibition call (relative growth <= 0.2). As to conditions: 50 µM.

Some of the results follow.

For the compound `CNC[C@@H]1CC[C@@H](N)[C@@H](O[C@H]2[C@H](O)[C@@H](O[C@H]3OC[C@](C)(O)[C@H](NC)[C@H]3O)[C@H](N)C[C@@H]2N)O1`, in experiment [1], the cytotoxicity call is “inactive”. Besides, the growth inhibition call in experiment [2] was “inactive”.
For `O=C(O)CCc1n[nH]c(=S)[nH]c1=O`, the cytotoxicity call in experiment [1] was “inactive”. In addition, the growth inhibition call in experiment [2] was “inactive”.
For `CO[C@@H](CN(C)C(=O)C1CCOCC1)[C@@H](C)CN(C(=O)Nc1ccc(C(F)(F)F)cc1)[C@@H](C)CO`, in experiment [1], the cytotoxicity call was “inactive”. In experiment [2], the growth inhibition call is “inactive”.
Take `COc1ccc(NC(=O)Nc2ccc3c(c2)[C@@H]2C[C@H](CC(=O)N4CCN(C)CC4)O[C@@H](CO)[C@@H]2O3)cc1`: the cytotoxicity call in experiment [1] was “inactive”. Also, the growth inhibition call in experiment [2] was “inactive”.
Take `CN1CCC(=C2c3ccccc3CC(=O)c3sccc32)CC1.O=C(O)C=CC(=O)O`: the cytotoxicity call in experiment [1] was “inactive”. Moreover, the growth inhibition call in experiment [2] was “inactive”.
On to `C[C@H]1CN([C@@H](C)CO)C(=O)c2cc(NC(=O)CCCN(C)C)ccc2O[C@@H]1CN(C)S(=O)(=O)c1cn(C)cn1`, for which, in experiment [1], the cytotoxicity call is “inactive”. In addition, the growth inhibition call in experiment [2] was “inactive”.
`CC(C)CC#Cc1ccc2c(c1)O[C@H](CN(C)Cc1cncnc1)[C@@H](C)CN([C@@H](C)CO)S2(=O)=O`: the cytotoxicity call in experiment [1] is “inactive”. In addition, the growth inhibition call in experiment [2] is “inactive”.
As for `CCOC(=O)c1c(CN2CCN(c3ccccc3)CC2)n(-c2ccccc2)c2cc(Br)c(O)cc12`, the cytotoxicity call in experiment [1] was “active”. Also, the growth inhibition call in experiment [2] was “inactive”.
On to `C[C@H]1CN([C@@H](C)CO)C(=O)c2cc(/C=C/c3ccccc3)cnc2O[C@@H]1CN(C)C(=O)c1cnccn1`, for which, in experiment [1], the cytotoxicity call was “inactive”. The growth inhibition call in experiment [2] was “inactive”.
As to `C=CC[C@H](CC(=O)NCCO)C(=O)N[C@@H](COC(=O)[C@@H](CC=C)CC(=O)OC(C)(C)C)Cc1ccccc1`, the cytotoxicity call in experiment [1] was “inactive”. Moreover, the growth inhibition call in experiment [2] was “inactive”.
With `Cc1cc(C(=O)Nc2cccc3c2O[C@@H](CN(C)Cc2ccncc2)[C@H](C)CN([C@H](C)CO)C3=O)n(C)n1`, the cytotoxicity call in experiment [1] was “inactive”. In experiment [2], the growth inhibition call is “inactive”.
With `COc1ccc(NC(=O)Nc2ccc3c(c2)C(=O)N([C@H](C)CO)C[C@H](C)[C@H](CN(C)S(=O)(=O)c2ccc(F)cc2)OCCCC[C@H](C)O3)cc1`, the cytotoxicity call in experiment [1] was “inactive”. In experiment [2], the growth inhibition call is “inactive”.
On to `C[C@@H]1CCCCO[C@H](CN(C)C(=O)NC2CCCCC2)[C@H](C)CN([C@@H](C)CO)C(=O)c2cc(NS(=O)(=O)c3ccc(Cl)cc3)ccc2O1`, for which the cytotoxicity call in experiment [1] is “inactive”. Moreover, the growth inhibition call in experiment [2] was “inactive”.
In the case of `COc1ccc(CN(C)C[C@H]2OCCCC[C@H](C)Oc3ccc(NC(=O)Nc4ccc5c(c4)OCO5)cc3C(=O)N([C@H](C)CO)C[C@H]2C)cc1`, the cytotoxicity call in experiment [1] was “inactive”. Further, the growth inhibition call in experiment [2] was “inactive”.
On to `COc1ccccc1S(=O)(=O)N(C)C[C@@H]1Oc2c(NC(=O)Nc3cccc4ccccc34)cccc2C(=O)N([C@@H](C)CO)C[C@H]1C`, for which the cytotoxicity call in experiment [1] was “inactive”. Further, the growth inhibition call in experiment [2] was “inactive”.
Turning to `Cn1cnc(S(=O)(=O)N2C[C@@H](O)COC[C@@H]3O[C@@H](CC(=O)NCc4cccc(F)c4)CC[C@H]32)c1`, in experiment [1], the cytotoxicity call was “inactive”. Besides, in experiment [2], the growth inhibition call is “inactive”.
Regarding `C[C@H](O)C#Cc1ccc2c(c1)O[C@@H](CN(C)C(=O)c1ccncc1)[C@H](C)CN([C@@H](C)CO)S2(=O)=O`, the cytotoxicity call in experiment [1] was “inactive”. In experiment [2], the growth inhibition call is “inactive”.
Consider `C[C@H](CO)N1C[C@H](C)[C@@H](CN(C)Cc2ccc(C(F)(F)F)cc2)Oc2ccc(NC(=O)Cc3ccccc3)cc2CC1=O`, for which the cytotoxicity call in experiment [1] was “inactive”. The growth inhibition call in experiment [2] was “inactive”.
As for `C[C@@H]1CCCCO[C@@H](CN(C)Cc2ccc(Cl)c(Cl)c2)[C@@H](C)CN([C@H](C)CO)C(=O)c2cc(NC(=O)NC3CCCCC3)ccc2O1`, the cytotoxicity call in experiment [1] was “inactive”. For the same compound, in experiment [2], the growth inhibition call is “inactive”.
With `COc1ccc(S(=O)(=O)Nc2ccc3c(c2)C(=O)N([C@H](C)CO)C[C@H](C)[C@@H](CN(C)C(=O)Nc2ccc4c(c2)OCO4)OCCCC[C@@H](C)O3)cc1`, the cytotoxicity call in experiment [1] is “inactive”. Also, in experiment [2], the growth inhibition call is “inactive”.
Regarding `Cc1ccc(S(=O)(=O)Nc2ccc3c(c2)C(=O)N([C@@H](C)CO)C[C@H](C)[C@@H](CN(C)Cc2ccc4c(c2)OCO4)OCCCC[C@H](C)O3)cc1`, in experiment [1], the cytotoxicity call was “inactive”. For the same compound, in experiment [2], the growth inhibition call is “inactive”.
`COc1ccc(COC[C@]23N=C4Sc5ccc([N+](=O)[O-])cc5C(=O)N4[C@H](c4ccccc4O2)[C@H]3CO[Si](C)(C)C(C)(C)C)cc1`: the cytotoxicity call in experiment [1] is “inactive”. The growth inhibition call in experiment [2] was “inactive”.
As for `C[C@@H]1CN([C@H](C)CO)C(=O)c2cc(NC(=O)Nc3ccccc3)ccc2O[C@@H](C)CCCCO[C@H]1CN(C)Cc1ccc2c(c1)OCO2`, the cytotoxicity call in experiment [1] was “inactive”. For the same compound, in experiment [2], the growth inhibition call is “inactive”.
Regarding `C[C@H](CO)N1C[C@H](C)[C@@H](CN(C)C(=O)c2cnccn2)Oc2ncc(/C=C/c3ccccc3)cc2C1=O`, in experiment [1], the cytotoxicity call is “inactive”. The growth inhibition call in experiment [2] was “inactive”.
In the case of `COc1ccc([Si](C)(C)[C@@H]2[C@@H](CCO)O[C@]3(C(=O)N(Cc4ccc(N5CCCCC5=O)cc4)c4ccccc43)[C@H]2C)cc1`, the cytotoxicity call in experiment [1] is “inactive”. Further, the growth inhibition call in experiment [2] is “inactive”.
Turning to `CN(C[C@@H](O)CN)S(=O)(=O)c1ccccc1`, the cytotoxicity call in experiment [1] is “inactive”. In addition, in experiment [2], the growth inhibition call is “inactive”.
For the compound `COc1ccc(NC(=O)Nc2ccc3c(c2)C(=O)N([C@@H](C)CO)C[C@@H](C)[C@H](CN(C)C(=O)Cc2ccccc2)OCCCC[C@@H](C)O3)cc1`, the cytotoxicity call in experiment [1] is “inactive”. The growth inhibition call in experiment [2] is “inactive”.
Regarding `C[C@H]1CN([C@@H](C)CO)C(=O)Cc2cc(NC(=O)CCN3CCOCC3)ccc2O[C@H]1CN(C)Cc1ccc(C(=O)O)cc1`, in experiment [1], the cytotoxicity call was “inactive”. In addition, in experiment [2], the growth inhibition call is “inactive”.
